In PubChem BioAssay AID2313 (Broad Institute, 2010):
Among all 22,000 compounds or so, about 460 (2.1%) were called active. Inconclusive means that the source gave no clear call. Such entries were picked first, then a sample of the others.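 How the source made its calls: active means mean inhibition across valid replicates above about 65% (limit read from the data); inconclusive means mean under the limit, yet half or more replicates past it; inactive means the rest.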

Assay: Shh-driven Gli reporter inhibition – luminescence, Shh-LIGHT2 cells, Gli-luciferase, primary screen (AID 2313);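 further: pathway switched on by Shh-conditioned medium diluted 1 in 25 in low serum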
Conditions: 30 h, active compounds read high

| SMILES | inhibition |
| --- | --- |
| C[C@@H]1CCCCO[C@@H](CN(C)S(=O)(=O)c2cccs2)[C@@H](C)CN([C@H](C)CO)C(=O)c2cc(NS(=O)(=O)c3ccccc3)ccc2O1 | inconclusive: 56.4% |
| COc1ccc(NC(=O)c2ccc(-c3ccc(-c4noc(C)n4)cc3C)cc2)cc1OCCN(C)C | inconclusive: 51.7% |
| N#CC(C#N)Cc1ccc(O)cc1 | inconclusive: 3.53% |
| C[C@H]1CN([C@@H](C)CO)C(=O)Cc2cc(N(C)C)ccc2O[C@H]1CN(C)S(=O)(=O)c1ccc(Cl)cc1 | inactive: -17.1% |
| C[C@@H]1CN([C@H](C)CO)C(=O)Cc2cc(NC(=O)NC3CCCCC3)ccc2O[C@H]1CN(C)Cc1ccc2c(c1)OCO2 | inconclusive: 58.4% |
| Cc1ccc(S(=O)(=O)N(C)C[C@H]2Oc3ccc(NS(=O)(=O)c4ccccc4)cc3CC(=O)N([C@@H](C)CO)C[C@H]2C)cc1 | inconclusive: 27.5% |
| CC(=O)OC1CCC2C3CCc4cc(O)ccc4C3CCC12C (stereo not given) | inconclusive: 64.4% |
| CC(C)(O)[C@@H]1Cc2cc3ccc(=O)oc3cc2O1 | inactive: -54.5% |
| C[C@H](CO)N1C[C@H](C)[C@H](CN(C)S(=O)(=O)c2cn(C)cn2)Oc2ccc(NC(=O)NC3CCCCC3)cc2CC1=O | active: 77.1% |
| Cc1cc(C(=O)Nc2cccc3c2O[C@@H](CN(C)Cc2ccc(-c4ccccc4)cc2)[C@H](C)CN([C@@H](C)CO)C3=O)n(C)n1 | inactive: 24.7% |
| C[C@H]1CC[C@@H]2[C@@H](C(=O)c3c(O)c([C@]4(O)CC[C@@H](O)[C@H]5O[C@H]54)c[nH]c3=O)[C@@H](C)C=C[C@H]2C1 | active: 95.9% |
| C[C@H]1CN([C@@H](C)CO)C(=O)Cc2cc(NS(=O)(=O)c3cccs3)ccc2O[C@H]1CN(C)Cc1ccc2c(c1)OCO2 | inconclusive: 55.6% |
| O=c1cc(-c2ccc(O)cc2)oc2cc(O)cc(O)c12 | inactive: -15.4% |
| Clc1ccc(C(Cn2ccnc2)OCc2c(Cl)cccc2Cl)c(Cl)c1 (stereo not given) | inconclusive: 50% |
| CCSc1nccc(-c2ccc3c(c2)CCC(C)(C)O3)n1 | active: 77.6% |
| CCC(=O)OC1(C(=O)CCl)[C@@H](C)C[C@H]2[C@@H]3CCC4=CC(=O)C=C[C@]4(C)[C@@]3(F)[C@@H](O)C[C@@]21C (stereo not given in full) | inactive: 50.2% |
| C[C@@H]1CN([C@H](C)CO)C(=O)c2cccc(NC(=O)C3CC3)c2O[C@@H]1CN(C)Cc1ccc(Oc2ccccc2)cc1 | inactive: 17.1% |
| CCn1cc(C(=O)O)c(=O)c2cnc(N3CCNCC3)nc21 | inconclusive: 43.4% |
| Cc1ccc(S(=O)(=O)N(C)C[C@H]2Oc3c(NC(=O)Nc4c(C)noc4C)cccc3C(=O)N([C@@H](C)CO)C[C@H]2C)cc1 | inconclusive: 21.8% |
| O=C(CCCN1CC=C(n2c(=O)[nH]c3ccccc32)CC1)c1ccc(F)cc1 | inconclusive: 61% |
| C[C@H](CO)N1C[C@H](C)[C@@H](CN(C)Cc2ccc(Oc3ccccc3)cc2)Oc2ccc(NC(=O)Nc3ccc(C(F)(F)F)cc3)cc2C1=O | inactive: -8.63% |
| COc1cc2c(cc1OC)[C@@H]1C(=O)c3ccc4c(c3O[C@@H]1CO2)CCC(C)(C)O4 | active: 94% |
| CC1CC(=O)[C@]2(C)CC[C@]3(C)C(C(=O)C(O)C4[C@@]5(C)CC[C@H](O)C(C)(C(=O)O)C5CC[C@]43C)C2C1C (stereo not given in full) | active: 81.5% |
| COc1ccc(C2=Nc3ccccc3SC(c3ccccc3)C2)cc1 (stereo not given) | active: 80.3% |

| SMILES | inhibition |
| --- | --- |
| Cc1noc(C)c1NC(=O)Nc1ccc2c(c1)C(=O)N([C@H](C)CO)C[C@H](C)[C@H](CN(C)CC1CCCCC1)OCCCC[C@@H](C)O2 | inconclusive: 22.7% |
| Cc1oc2c(c1C(=O)NCCc1ccccc1)C(=O)c1ccccc1C2=O | inactive: -16.6% |
| CCNS(=O)(=O)c1cc(-c2nnc(Nc3ccc(F)cc3)c3ccccc23)ccc1C | inactive: 56.1% |
| CC(=O)OCOC(=O)CN(CC(=O)OCOC(C)=O)c1ccccc1OCCOc1ccccc1N(CC(=O)OCOC(C)=O)CC(=O)OCOC(C)=O | inactive: 17.5% |
| COc1ccc(CN(C)C[C@H]2Oc3ccc(NC(=O)NC4CCCCC4)cc3C(=O)N([C@H](C)CO)C[C@H]2C)cc1 | inconclusive: 35% |
| Cc1[nH]c2ccccc2c1C(c1ccccc1)N1CCN(C)CC1 (stereo not given) | inconclusive: 58% |
| COc1ccc(S(=O)(=O)N(C)C[C@@H]2OCCCC[C@@H](C)Oc3ccc(NC(=O)Cc4ccccc4)cc3C(=O)N([C@H](C)CO)C[C@@H]2C)cc1 | inconclusive: 60.2% |
| O=C(Nc1ccccc1)N(Cc1ccccc1)c1cccc2ccccc12 | inconclusive: 50.1% |
| C=C1C(O)C(O)C2(CC3C(C)=CCC4C(C)(C(=O)O)CCCC34C)OC2C1O (stereo not given) | inconclusive: 46.5% |
| S=C(NC1CCCCC1)C(=S)NC1CCCCC1 | inactive: -22.1% |
| COc1ccc(NS(=O)(=O)c2ccc(N)cc2)nn1 | inconclusive: 40.9% |
| Cn1nnnc1SCC1=C(C(=O)O)N2C(=O)[C@@H](NC(=O)[C@H](O)c3ccccc3)[C@H]2SC1 | inconclusive: 45.3% |
| C=CCSc1ncc2c(=S)[nH]c(=S)[nH]c2n1 | active: 65.4% |
| COc1ccc(NC(=O)N(C)C[C@H]2Oc3ccc(NS(=O)(=O)c4ccc(Cl)cc4)cc3CC(=O)N([C@@H](C)CO)C[C@H]2C)cc1 | active: 66.5% |
| Cc1cc(C(=O)CSc2ncnc3sc4c(c23)CCCC4)c(C)n1Cc1ccco1 | inconclusive: 56.2% |
| COc1ccc(CCC(=O)c2ccc(OC)cc2O)cc1 | inactive: 25.2% |
| C[C@@H]1CN([C@H](C)CO)C(=O)c2cccc(NC(=O)Nc3ccccc3)c2O[C@@H]1CN(C)S(=O)(=O)c1cn(C)cn1 | inconclusive: 45.8% |
| Cc1cc(C(=O)Nc2cccc3c2O[C@H](CN(C)CC2CCCCC2)[C@@H](C)CN([C@H](C)CO)C3=O)n(C)n1 | inconclusive: 58.7% |
| CNC[C@@H]1Oc2c(NC(=O)C3CCCCC3)cccc2C(=O)N([C@@H](C)CO)C[C@@H]1C | inactive: -91.6% |
| Cc1cc(C)c(C(=O)N2Cc3ccccc3NC2=S)c(C)c1 | inactive: -12.8% |
| C[C@@H]1CCCCO[C@H](CN(C)S(=O)(=O)c2ccc(F)cc2)[C@@H](C)CN([C@H](C)CO)C(=O)c2cc(NC(=O)Nc3ccc(F)cc3)ccc2O1 | inactive: -21.1% |
| COc1ccc(CCN(C)CCCC(C#N)(c2cc(OC)c(OC)c(OC)c2)C(C)C)cc1OC (stereo not given) | inconclusive: 62.3% |
| C[C@@H]1CCCCO[C@H](CN(C)C(=O)Nc2ccc3c(c2)OCO3)[C@@H](C)CN([C@H](C)CO)C(=O)c2cc(NS(=O)(=O)c3ccc(Cl)cc3)ccc2O1 | inconclusive: 18.6% |
| C[C@@H]1CN([C@@H](C)CO)C(=O)c2cccc(NC(=O)Nc3ccc4c(c3)OCO4)c2O[C@H]1CN(C)CC1CCCCC1 | inactive: -18.8% |

| SMILES | inhibition |
| --- | --- |
| CC(=O)OCC(=O)[C@@]1(O)CCC2C3CCC4=CC(=O)C=CC4(C)C3[C@@H](O)C[C@@]21C (stereo not given in full) | inconclusive: 52.8% |
| COc1cccc2sc(NC(=O)c3ccc(S(=O)(=O)N4CCCC(C)C4)cc3)nc12 (stereo not given) | inactive: -46.9% |
| CN1CC[C@]23c4ccccc4N[C@H]1[C@]21CCN(C)[C@H]3Nc2ccccc21 | inconclusive: 59.6% |
| CCOC(=O)c1c(CSc2nc(C)ccc2C#N)oc2ccc(OC(C)=O)cc12 | active: 99.8% |
| COc1ccc(S(=O)(=O)N(C)C[C@H]2Oc3ccc(NS(=O)(=O)c4ccc(Cl)cc4)cc3C(=O)N([C@H](C)CO)C[C@@H]2C)cc1 | inconclusive: 47.9% |
| C[C@@H]1CN([C@H](C)CO)C(=O)Cc2cc(NC(=O)NC3CCCCC3)ccc2O[C@H]1CN(C)Cc1ccc(-c2ccccc2)cc1 | inconclusive: 47.9% |
| Cc1ccc(C(=O)OC(c2ccccc2)c2nccc3ccccc23)cc1 (stereo not given) | inactive: -49.4% |
| C[C@@H]1CN([C@@H](C)CO)C(=O)c2cccc(NC(=O)Nc3ccc(C(F)(F)F)cc3)c2O[C@@H]1CN(C)C(=O)Nc1ccccc1 | inactive: 23.4% |
| CC(C)NC(=O)N(C)C[C@@H]1Oc2c(NC(=O)Nc3ccc(C(F)(F)F)cc3)cccc2C(=O)N([C@H](C)CO)C[C@H]1C | inconclusive: 13.9% |
| CCC(O)c1ccc2c(=O)c(-c3ccccc3F)coc2c1 (stereo not given) | inconclusive: 53.9% |
| C[C@H](CO)N1C[C@H](C)[C@H](CN(C)S(=O)(=O)c2ccc(F)cc2)Oc2c(NC(=O)C3CC3)cccc2C1=O | active: 103% |
| Cc1ccc(S(=O)(=O)Nc2ccc3c(c2)CC(=O)N([C@H](C)CO)C[C@H](C)[C@H](CN(C)S(=O)(=O)c2ccc(C)cc2)O3)cc1 | inconclusive: 39.9% |
| C[C@H]1CN([C@@H](C)CO)C(=O)c2cc(NS(C)(=O)=O)ccc2O[C@H]1CN(C)CC1CC1 | inconclusive: 9.03% |
| CC(C)(C)[C@]1(O)CCN2C[C@H]3c4ccccc4CCc4cccc(c43)[C@@H]2C1 | active: 77.9% |
| CC(C)CC(=O)c1c(O)cc(O)cc1OC1OC(COC(=O)c2cc(O)c(O)c(O)c2)C(O)C(O)C1O (stereo not given) | inactive: -16.2% |
| C=C(C)C(=O)O[C@H]1[C@H]2C(=C)C(=O)O[C@@H]2C[C@@H](C)/C=C/C(=O)[C@](C)(O)[C@@H]1OC(=O)C(=C)C | inactive: 3.29% |
| CC1=C(CO)CC(C(C)C2CCC3C4CC=C5CC(OC6OC(COC7OC(CO)C(O)C(O)C7O)C(O)C(O)C6O)CC(O)C5(C)C4CCC23C)OC1=O (stereo not given) | inconclusive: 43.7% |
| C=C1C(=O)O[C@@H]2/C=C(/C)[C@@H]3C/C=C(/C[C@@H](OC(=O)/C(=C/CO)CO)[C@@H]12)C[C@@](O)(C(C)C)C(=O)O3 | inconclusive: 47.7% |
| Cc1ccc(S(=O)(=O)N(C)C[C@@H]2Oc3ccc(NC(=O)Nc4ccc(F)cc4)cc3C(=O)N([C@@H](C)CO)C[C@H]2C)cc1 | inactive: -11.7% |
| CC(C)NC(=O)N(C)C[C@@H]1Oc2ccc(NC(=O)Cc3ccccc3)cc2CC(=O)N([C@@H](C)CO)C[C@@H]1C | inconclusive: 41.7% |
| C[C@@H]1CN([C@@H](C)CO)C(=O)Cc2cc(NC(=O)Nc3ccc(C(F)(F)F)cc3)ccc2O[C@@H]1CN(C)S(=O)(=O)c1cccs1 | inactive: 18% |
| COc1ccc(-c2cc(SCCN3CCOCC3)c(C#N)c(-c3ccccc3)n2)cc1 | inconclusive: 63.5% |
